Results as given in publication PMC10726135.
This is one part of the list. At the low end of the ranking the order means little. The protein was read in a cell extract, so binding may be indirect.

These sequences were tested against T1, HNF4alpha8 (COS-7 nuclear extract) (UniProt P41235-5) (assay: protein-binding microarray). Details: COS-7 nuclear extract on double-stranded Agilent 4x180k PBM; binding buffer, salt, pH and temperature not given; high values mean tight binding; double strand, one strand shown; sequences stand for … in …GCCTAGGGAGATTAGAGTATCGGTCGA.
T1 sequence: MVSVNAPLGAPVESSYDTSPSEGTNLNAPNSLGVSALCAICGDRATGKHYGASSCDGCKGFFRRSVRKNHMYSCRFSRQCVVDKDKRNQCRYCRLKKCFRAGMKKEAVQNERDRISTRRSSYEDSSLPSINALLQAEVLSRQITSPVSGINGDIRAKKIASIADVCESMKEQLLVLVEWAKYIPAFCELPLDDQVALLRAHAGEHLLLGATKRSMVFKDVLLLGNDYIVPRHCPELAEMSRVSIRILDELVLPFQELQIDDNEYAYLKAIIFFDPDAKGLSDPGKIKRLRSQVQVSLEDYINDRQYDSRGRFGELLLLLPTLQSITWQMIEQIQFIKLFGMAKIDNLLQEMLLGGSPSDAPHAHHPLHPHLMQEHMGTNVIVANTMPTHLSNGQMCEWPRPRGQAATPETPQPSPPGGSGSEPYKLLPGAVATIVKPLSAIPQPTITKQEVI

Sequence	binding signal (log2 normalized intensity)
TGGAATGTCTCTGGTTGAAGGGGAGGTTAT	0.848
AATGCCAGGCATTTGCGATAATAGAGATTG	-1.4
GAAGGATAGAGAGTTGGGAGGGAACAGTCC	-0.498
AGCTGTGTCTACCCTTTTGCCCTTTGAGCT	6.67
GTCCTGTGGGGCCCAGAGCCAGGTGTGCTG	-1.16
GCATCTGGACCATTGCTGACCTTGCCTCTG	2.32
AAGCTTTCTTGGGCAAGAAAGGGGTCAGCA	3.02
CAAGCTCTAGCATCCCTCTCTTGCTGGGCC	-1.32
GGACACAAAGTGGACAGTGTCTGACTAGAG	-0.393
TCCAGCTCTGTGACTTTACCTGAAATGAGA	-1.27
CCTTCGCTCGGCTCGCTCTCCCTGCTGGCC	-1.17
TTTACTTTTTAAACACCTAGAGTTACAGTC	-0.226
GCACTTGATGTTCCCCCTCCCTGGACTCCT	4.71
ACACGAAACAAGTAGCAGTTCAAAAGTTCA	2.36
GGCAGGTCTCTCTCATTCACACCCTCAGCT	-1.36
GAGGGAGCCGCTGTGTGGGAAGAGGGCCTA	-1.41
AGTGGAGAAATAACATTAATGGAAATGCCT	-1.3
TAAAACATCTTTGAAGAGCACAGGGTCAGC	2.05
TTCGAATATTTGTGATTTGAAATTTGTCCT	2.76
TGTGATCTTGGGTAAGCCACTGAACTTTCA	3.1
AAGGGTTCATCTGACTGGAAGAGCCTGCAA	-1.25
GTGGGTAATTAACTCCCCCTGCCCCCAGGT	5.38
ATGAGATAAGGTTCTGATAAAGTATCTTCA	-1.29
CCATCAGTGGACTTTGACCTTGTTTTCAAT	9.54
GCCGGGAAAACCCGGAGCGGAGCATCCCTC	-1.35

Sequence	binding signal (log2 normalized intensity)
TGCTCCCAAAGCAAACCTCCCCAGCCCAGG	3.01
CAGGACCTGCCATTTTTTCAAACACCTGGG	-1.3
AATTTCAAATTTGCACCTGCCTTTAGGCAT	-1.35
AGCTTAGGGTTCAAACTCCAGCTCTGATAC	3.47
TTGCTTGTGAATGAAAGAGACTAGTATGTA	0.132
GGCGCGCCTGCCCTTCGCTCCCCGACCTCC	4.2
CAGCAGACTCAGAAAAATATGTGGACTTCA	2.99
TAAAGTTCATTGCTTTGAGCATGAGAGTTC	0.887
GTGGAGCAGCTTTCTCTGCACACACTCACA	-1.34
CTGAGCTAAGATAACCATCAAATCCTCGGA	-1.32
ATATAAAAACTAACCATACTGAGTGTTGGT	-0.252
TGTGTGTGTGTGTGTGTGTGTGTGTATGCC	3.1
AACGAGACCTTAGCCCTGAACAAACAGCTT	-1.42
CTGAATCAAGGTTTCTTTCCCTGGGGTCAA	4.4
GAGCCAAGGGAGCACAACCCGGGCGCACAA	-1.29
TTGCAACCTTTGCCCTGTTGTCTTTGCCCA	4.71
TGATCCCTGACTCATAGCTCCAGAGCCACC	-1.48
ACTACTTATCTCCAAGACCCTTCATAGCTT	-1.07
CCTTGCTGATAAAACAGCATGCGGTAAAGA	-1.27
TTGATAAACAGATAACTGGGGGCAAAGGTT	7.27
CAGCTAAAGCCTGCTCGTTGGGGGTCACCC	4.15
CTCGCCTGGCTCCCCACGTGGCAATCATTC	-1.27
AACTTTCAAGATGAAGCAAGAGTCCAAATT	3.41
CTGTTTCCTACTGACCTCCGACCCCACGGA	5.54
CAAGATAACAAGGCAAACTTTATCAAGACT	-1.45

Sequence	binding signal (log2 normalized intensity)
GGCCTCTCTGCAAATTTGCCTTGTCCTTAG	1.36
GTCCAGGGCCCTTACCATCAATCACATTGT	-1.24
GCAAAGGTCACAAGAGGTGCTGTGTGCCTG	1.71
TCACACAATCAGTGTGTTGACATTTGAACC	4.54
AGGTTCAGTGAAGTAGTGTGTATGAAAGGC	0.793
TCTCCAAGGTTATTATATTGTGGGTTCTTG	1.82
CTCCTATCCTCTGATCCCCAGGTCATAAGA	2.05
CTGACCCTAGATGAGATAAGGTTCTGATAA	-1.23
GTGATAAAACCCATGGACCTGACACCCGCT	-1.28
TCTTGGGTAAGCCACTGAACTTTCACTGCC	1.72
CCAAAGTCCGCCACTAGCAACAGCTGCAGT	-1.39
AGTGCAATGCCTAAACCAGGATCCAGTCCT	-1.42
CCACACTCTCCCCACCCCCAAATCCCCTTC	5.86
TCCCCGTCACCCTCCCCGCCACCCCCCAGA	7.31
AAGCAGCGATGGAAGGGATGGGGTGCAAAC	-1.27
ACCTGAGTGCCAGAGCTGTGAAGACTGCAG	-1.37
GGAGGCAGGGAGACAACCTGGGTGTAGGTG	-1.38
CAAGCTTGATCCAGGATCCTTCTTGACCAG	1.18
ACCCGGCGCGGACATAAAATTAAAGCGGAC	-1.16
CCATCATGTGTACAGAGCTGAAGTTTGCAA	0.684
CGGGGAACCCAGCAAACCTGTCTCTCTGCA	-1.26
TCTGTCCTTTGTGTTTATGGCAAATTGATA	2.04
GAACTGAGTTACTTGTGCTAAGTGCCATGT	0.786
TAGCAAAGAAACTCGTGGCATTTTTGCCCC	2.94
TGTAATACACAAGCAATAGGGTTCGGTGCA	0.3

Sequence	binding signal (log2 normalized intensity)
CATTCAGCAACTGGGTTCAGTTACGGGGTG	1.38
TACTTTTCAAATGTAAGAATTTAAACCAAA	-0.968
GTACGGAGGACAGCCACCCGTGCTTGGAAT	-1.35
GCTCAGCTGGTTGCCCCTTTGACCCTCGGG	7.06
CTCCCTCCCCACCCGGTGTGCGTGGGTGGG	2.03
TATGGCAACCTTTGTCCTGCTGAGGAGGCA	2.92
TTCAAAAGAGAGAGTAGCTCCAAAAGGTGG	-1.33
ATCCTGTCTCCTTTAACCTTCATTCATATC	1.47
TTAGCTTCCTCCCTTGGAATGTGACCTTAG	5.27
TCCCCACCATTAACCCTACAGTCCTGCCAC	2.5
GGAATGACCTTTGATATTTGTGCCTAGTGG	5.39
AGGCATCTCTGGGGGTCAGAAGTCCAACAT	5.91
ATCGGAGAACGTTCCAAACCTACACAGACC	-1.45
AGAAATAGCCTGAAAATGTTTGCCGACCTC	1.8
TTGACCACAGTTATCTCCCCAGCTTACAAT	2.16
TGATCTTAAGATGATATAGCTGTTCATTAG	1.35
CTTTGTATAAGCCGTGCAAAGTTCATCCCT	4.01
ATTTCACAAATGAGGGGACAAAGTTCGTGG	4.29
CTGGCAAATGTGAATGGACTCTGCCCTTAG	6.96
AAGGCCCAGCTAGAAGCAGTGGGACAAAGG	1.46
ATCGCACGAGCAAGTTTATTCCAAGACTCG	-1.26
TGGAGGCCAAAAGTAGGGAGGAGGGGAGGG	-1.29
GCTCCGCCGGACCGGCCAAACTGGTTTCTC	-1.27
ACCAAACAAAATTAATGTGCCTGCCACATC	-1.39
ACCAGATAAGGCAGTGGTTTGCAGTTGGAA	0.598

Sequence	binding signal (log2 normalized intensity)
GTAACCTTTGGCCAATTGCATTTTTGTTCC	3.19
CCAGATGAGATAGGAGGTCAGCACAAGATA	-1.35
GAGAGTTTTCCTTGGCTGTGCTGCCCTTTG	4.01
TGGGCTCTGACCCGAAGGGTAGGAGAAGCT	-1.34
TCGTGGCCCCTGGGTCGTTGGTGCTCCCCC	4.53
ATTTGACAATTTACAGTGTTCAAAGGTAGC	2.48
TTTCATTGAACTGCTGGGGGTAAAGTGGAT	1.5
CTGACCTCCGACCCCACGGACTTAAATTGT	3.37
CTTTGAAAAAACCTGTTCAGCCAGATTCTC	-1.25
CTGAGGAAAAAAGTTTGAAAATGCCTTGAA	-0.805
ACCTGTACAGGGACTGTGTCAACAAGGTAT	0.448
CAACCCATCCAACTCCTTGAGAAGTACAAC	-0.809
CATAGTAACAACCTAAATCAGAGCACCATT	-1.42
AGCATTTTTGTATGCATAAGGCCTTGGACC	3.27
AATGAAACATTGTGACTTCCTCATGATCGC	1.05
CTGCACCTTGACCTCCTGGGCCCAAGTGCT	3.42
ACGGACTTAAATTGTGCTGTGTCAGAGTTG	1.66
CCAAGAGCGGAAAGAAAGGCCTTTCATACG	-1.31
GCGGCGGAACGCGCGGGCAGGTTGCCCTTT	5.31
TTACTTATGTTGTCCGGACACCAACCTTTG	3.03
TCTATCTCCCTACCCTCACCCCTGCTGGGG	1.87
TTCCTGTTAGATAGAGGAGTCAAGCAAACA	-0.972
AACCCCTAGGTCAGCAGTTGTTCAAAGTCC	5.35
ACACAGTTGCCTATGCCCTTTGAAATTCTG	2.26
AAAAGCCTTTTGAAGAAACCAACCCTGCCA	-1.37

Sequence	binding signal (log2 normalized intensity)
TTGGATTTTAAAAGCCCTCAAATACTCTGA	-1.38
CGGTGAGGGATTGTTTAGGTACAAAGTCCA	8.89
ACTGTATCTTATCAGAAACACACCCTTGGG	-1.33
AGTGCATAGCTAAGCACCCAGATAAGTTAT	-1.23
TCTGCTCTTGAACCAGAGAATCTCTCATTT	-1.05
TCAAGACAGGTGAGAGAGCTGCATTGCTTC	-1.12
TTCACCGGAGATTTACATTCCAGAGTAAAC	-1.32
TATCTTCGTATAGAAACAAGACAGAATGAT	-0.509
AGGCCATCCACATTCTTTGGCTCAGGGCCT	-1.31
GGCCACTCCGTTTGCTATGGCCTTTCTTCA	0.898
CCTGGCCGAGGTTGCCCAGCTATTAAATGG	-1.01
ACTGAATATGTTCGGGAGACATGTGGCCTT	2.13
TTGCCTGATAGCATCGTGGGTATTTGGGGA	1.17
GATAAGTCCCTAAGAGGAATAGTCAGATTG	-1.45
TTACTGGACTTGATCCATTCTACCCCTGTG	2.82
GCAGGGCTTTTCCATTGACAGTCCAAGGAC	-1.35
CAGCCCAGCATACCATTCCCACCCCATTTC	3.23
TAGCTCACAGGAAAGGAGACTAAAGGTCAA	5.26
TGGACTTTGTGGGCCAAAAGCAGCCATTAA	1.48
TTTCAAGCAATGTTTGCCTCTCAGCTCATT	-1.39
